Values marked as one replicate rest on one cluster of the flow cell; about a third of the high ones do not repeat.
What follows are sequences tested on ATP (assay: switch fluorescence ratio, 500 uM ATP over buffer (Cy3 cluster intensity, sum of 5 cycles each) (fold (ratio)); higher = stronger signal-on switching upon ATP binding; sequences stand for … in TCGTCGGCAGCGTCAGATGTGTATAAGAGACAGTTTTTTTTTTTTTTTTTTTTTTTTT…TC). Conditions: aptamer strand: ATP DNA aptamer (quencher-CACCTGGGGGAGTATTGCGGAGGAAGG + anchor), 100 nM annealed; ATP concentration: 500 uM; one replicate.
In short: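 The fluorescence ratio divides summed target-cycle Cy3 intensity by summed buffer-cycle Cy3 intensity for each cluster and is averaged per switch-domain sequence. Cy3-labelled switching-strand clusters on a modified Illumina MiSeq flow-cell were annealed to 100 nM quencher-labelled ATP aptamer, then imaged in selection buffer and again after 15 min with 500 uM ATP at 22 °C. Five such cycles were run, with NaOH stripping and re-annealing between them, and clusters outside 100-1000 RFU were excluded.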
For TCACTCGATA, the switch fluorescence ratio was 1.03.
TCACTGTAA showed a switch fluorescence ratio of 1.2.
Work on TCACTTACGA yielded a switch fluorescence ratio of 1.4.
For TCAGAAGGAT, the switch fluorescence ratio was 0.986.
In the case of TCAGAATCCT, the switch fluorescence ratio is reported as 1.07.
In the case of TCAGACGAGG, the switch fluorescence ratio is reported as 1.01.
Work on TCAGACGGAC yielded a switch fluorescence ratio of 1.52.
With TCAGACTGAA the switch fluorescence ratio was 1.03.
TCAGAGCGGT gave a switch fluorescence ratio of 1.02.
With TCAGAGCTCA the switch fluorescence ratio was 1.02.
Sequence TCAGAGGTTA has a switch fluorescence ratio of 0.992.
Sequence TCAGATAACG has a switch fluorescence ratio of 1.01.
Sequence TCAGATTTGA has a switch fluorescence ratio of 0.993.
Work on TCAGCAAAAC yielded a switch fluorescence ratio of 2.18.
In the case of TCAGCACGTT, the switch fluorescence ratio is reported as 0.988.
Sequence TCAGCAGGGT has a switch fluorescence ratio of 0.997.
TCAGCATATC showed a switch fluorescence ratio of 4.77.
In the case of TCAGCCAGGC, the switch fluorescence ratio is reported as 1.
TCAGCCATTC showed a switch fluorescence ratio of 1.15.
TCAGCCGCGG gave a switch fluorescence ratio of 1.06.
In the case of TCAGCGAGGA, the switch fluorescence ratio is reported as 1.26.
TCAGCTAGGA showed a switch fluorescence ratio of 0.995.
With TCAGCTTGCT the switch fluorescence ratio was 1.01.
TCAGGAACAT showed a switch fluorescence ratio of 1.04.
TCAGGAGTTC showed a switch fluorescence ratio of 1.
TCAGGCACTG gave a switch fluorescence ratio of 0.995.
Work on TCAGGCCGCA yielded a switch fluorescence ratio of 1.23.
TCAGGCCGGA was tested, and the switch fluorescence ratio was 0.968.
Sequence TCAGGCGCCA has a switch fluorescence ratio of 0.966.
For TCAGGCTAGT, the switch fluorescence ratio was 1.03.
With TCAGGCTTTA the switch fluorescence ratio was 1.05.
Work on TCAGGTCTCG yielded a switch fluorescence ratio of 0.999.
TCAGGTGATG gave a switch fluorescence ratio of 1.21.
TCAGGTTCGC gave a switch fluorescence ratio of 1.05.
In the case of TCAGTAAGT, the switch fluorescence ratio is reported as 0.964.
Work on TCAGTACCGG yielded a switch fluorescence ratio of 1.
In the case of TCAGTATTTG, the switch fluorescence ratio is reported as 0.983.
In the case of TCAGTCCCGC, the switch fluorescence ratio is reported as 1.05.
For TCAGTCGGAC, the switch fluorescence ratio was 0.997.
TCAGTCTACT gave a switch fluorescence ratio of 1.04.
In the case of TCAGTGAGCA, the switch fluorescence ratio is reported as 1.01.
For TCAGTGATTT, the switch fluorescence ratio was 1.12.
In the case of TCAGTGGAGA, the switch fluorescence ratio is reported as 1.08.
TCAGTGTACT was tested, and the switch fluorescence ratio was 1.1.
In the case of TCATAAAGGA, the switch fluorescence ratio is reported as 0.984.
TCATACATGG gave a switch fluorescence ratio of 0.9.
TCATACGGGA showed a switch fluorescence ratio of 1.25.
For TCATACTGT, the switch fluorescence ratio was 0.993.
TCATAGAAGA showed a switch fluorescence ratio of 1.03.
TCATAGCACT showed a switch fluorescence ratio of 1.02.
TCATAGGGTT was tested, and the switch fluorescence ratio was 1.11.
With TCATAGGTA the switch fluorescence ratio was 1.05.
For TCATAGGTTC, the switch fluorescence ratio was 2.38.
TCATAGTGGC gave a switch fluorescence ratio of 1.03.
Sequence TCATATCGTA has a switch fluorescence ratio of 0.975.
Sequence TCATATGCCT has a switch fluorescence ratio of 0.997.
TCATCCAATA gave a switch fluorescence ratio of 1.04.
For TCATCGTGTG, the switch fluorescence ratio was 1.01.
TCATCTTAGT was tested, and the switch fluorescence ratio was 1.01.
In the case of TCATCTTTTA, the switch fluorescence ratio is reported as 1.04.
Work on TCATGAACCT yielded a switch fluorescence ratio of 1.88.
Sequence TCATGACTCA has a switch fluorescence ratio of 0.909.
For TCATGCATTG, the switch fluorescence ratio was 0.945.
Work on TCATGGCACT yielded a switch fluorescence ratio of 1.03.
TCATGGGCGA showed a switch fluorescence ratio of 1.02.
TCATGGGTAG gave a switch fluorescence ratio of 0.996.
TCATGGTGGC showed a switch fluorescence ratio of 0.982.
For TCATGGTTGC, the switch fluorescence ratio was 0.991.
TCATGTAGGT showed a switch fluorescence ratio of 0.984.
TCATTAGCAC gave a switch fluorescence ratio of 0.954.
For TCATTCGGCG, the switch fluorescence ratio was 1.02.
For TCATTGAATT, the switch fluorescence ratio was 0.936.
TCATTGACAG was tested, and the switch fluorescence ratio was 1.07.
Work on TCATTTACGC yielded a switch fluorescence ratio of 1.04.
TCATTTCATA showed a switch fluorescence ratio of 1.
Sequence TCATTTCGTC has a switch fluorescence ratio of 1.01.
With TCATTTGATG the switch fluorescence ratio was 0.963.
TCCAAAGTG gave a switch fluorescence ratio of 1.07.
In the case of TCCAAATCCC, the switch fluorescence ratio is reported as 1.06.
TCCAAGGATC showed a switch fluorescence ratio of 1.03.
TCCAAGGTTC was tested, and the switch fluorescence ratio was 1.11.
With TCCAATGGTG the switch fluorescence ratio was 1.26.
TCCACCAGGG showed a switch fluorescence ratio of 6.13.
In the case of TCCACCCAAC, the switch fluorescence ratio is reported as 1.15.
TCCACCTCTT showed a switch fluorescence ratio of 1.03.

From the supplement of paper PMC10126150
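Note: ATP exposure 15 min at 22 °C before imaging.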
